# Among all 220,000 compounds or so, about 16,000 (7.3%) were called active. Inconclusive means that the source gave no clear call. Such entries were picked first, then a sample of the others. The call rests on the fitted dose curve; in most records, active means well fitted inhibition curve with a large enough effect (not every such curve was filed as active); inconclusive means small, poorly fitted or top-dose-only effect, or another doubt; inactive means no such curve, though single readings can be large or run the other way. No potency is given beside an inconclusive call; the fits are too rough.
# Target: Aldehyde dehydrogenase 1A1 (Homo sapiens) (UniProt P00352)
# UniProt P00352, sequence (P00352 whole entry, looked up): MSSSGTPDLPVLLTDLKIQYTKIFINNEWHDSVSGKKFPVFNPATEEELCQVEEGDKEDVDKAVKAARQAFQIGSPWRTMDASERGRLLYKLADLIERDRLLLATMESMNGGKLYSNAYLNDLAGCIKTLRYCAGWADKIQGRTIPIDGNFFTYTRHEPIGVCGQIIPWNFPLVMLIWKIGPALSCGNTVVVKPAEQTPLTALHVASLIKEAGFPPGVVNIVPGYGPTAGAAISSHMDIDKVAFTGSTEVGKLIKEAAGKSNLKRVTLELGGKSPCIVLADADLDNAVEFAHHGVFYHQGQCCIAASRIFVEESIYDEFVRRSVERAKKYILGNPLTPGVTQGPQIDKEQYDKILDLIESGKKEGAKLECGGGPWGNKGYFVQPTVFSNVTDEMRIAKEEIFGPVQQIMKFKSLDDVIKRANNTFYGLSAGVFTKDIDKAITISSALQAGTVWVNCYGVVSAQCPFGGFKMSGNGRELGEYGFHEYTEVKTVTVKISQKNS
# Experiment: qHTS Assay for Inhibitors of Aldehyde Dehydrogenase 1 (ALDH1A1);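 on activity, negative = inhibition: plate controls were no enzyme wells and a reference inhibitor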
# Conditions: Purified ALDH1A1, NADH fluorescence, propionaldehyde substrate; series mostly up to 75.3 µM
# Potency means the concentration at half of the fitted maximal effect; tags describe the fitted curve by direction and shape.
Structure (SMILES),Potency,"activity, negative = inhibition"
CC(C)N1CC=C2C(C#N)=C(N)C(C#N)(C#N)[C@H](c3ccoc3)[C@H]2C1,"inconclusive [inhibitor, partial curve]",–
N#Cc1c(N)sc(=S)c2c1CCCC2,"inconclusive [inhibitor, single point]",–
O=C(Nc1cccc([N+](=O)[O-])c1)c1ccc(CN2CCOCC2)cc1,"inconclusive [inhibitor, partial curve, poor fit]",–
CCOC(=O)c1cc2c(nc1N)CC(C)(CC)OC2 (stereo unspecified),"inconclusive [inhibitor, partial curve]",–
c1cncc(CNCc2cccnc2)c1,–,inactive: 0.352% [at 13.5 µM]
COc1ccc2ccccc2c1C1CC(=O)N2CN(Cc3ccco3)CSC2=C1C#N (stereo unspecified),active: 22.4 µM,–
O=C(CN1CCN(C(=O)c2cccc(F)c2)CC1)NC1CCCCC1,"inconclusive [inhibitor, single point]",–
O=C(NCCSc1c[nH]c2ccccc12)c1ccc(Br)o1,inactive,–
O=C(NC1=NCCS1)c1ccc(Cl)c(S(=O)(=O)N2CCCCC2)c1,"inconclusive [inhibitor, single point]",–
C=CCN(C(=O)CSc1nc2[nH]ncc2c(=O)n1-c1ccccc1OC)c1ccccc1,active: 12.6 µM,–
Cc1nn(-c2ccc(F)cc2)c2nc(N)c(C#N)c(-c3cccs3)c12,"inconclusive [inhibitor, single point]",–
C=CCc1cc(C=O)cc(OC)c1OCc1c(Cl)cccc1Cl,"inconclusive [inhibitor, partial curve]",–
Cc1[nH]n(-c2ccc(S(=O)(=O)O)cc2)c(=O)c1N=Nc1ccccc1,–,inactive: -6.62% [at 13.5 µM]
Cn1c2ccc(F)cc2c2ncn(CCN3CCOCC3)c(=O)c21,"inconclusive [inhibitor, partial curve]",–
CCOC(=O)c1c(C)[nH]c2c1cc(O)c1ccccc12,"inconclusive [inhibitor, partial curve]",–
CCOC(=O)C1(Cc2ccc(OC)cc2)CCN(C(=O)CN2CCN(CC)CC2)CC1,active: 25.1 µM,–
O=C(CCNc1cccc(Cl)c1)c1ccco1,active: 7.08 µM,–
O=C(CN1CCN(c2ncccn2)CC1)N1CCCC1,"inconclusive [inhibitor, single point]",–
CCc1ccccc1S(=O)(=O)Cc1ccc(C(=O)NCc2ccc3c(c2)OCO3)o1,"inconclusive [inhibitor, single point]",–
COc1ccc2nc(C)cc(C(=O)O)c2c1,"inconclusive [inhibitor, partial curve]",–
Cc1ccc(-c2nn(-c3cccc(F)c3)cc2CNCc2cccnc2)o1,"inconclusive [inhibitor, partial curve]",–
Cc1ccc(-n2cc(CNCCn3nc(C)cc3C)c(-c3ccc(F)cc3)n2)cc1,"inconclusive [inhibitor, single point]",–
CCCn1cnc2cc(NCc3cccc(OC)c3)ccc21,"inconclusive [inhibitor, single point]",–
Cc1cc(C(=O)COC(=O)C2=NNC(=O)CC2)c(C)n1CCc1ccccc1,"inconclusive [inhibitor, partial curve]",–

Structure (SMILES),Potency,"activity, negative = inhibition"
Cc1cc(C)nc(N(C#N)Cc2ccccc2Cl)n1,active: 14.1 µM,–
O=C(CC(=O)c1ccccc1)c1ccccc1,inactive,–
O=C(OCC(=O)N1c2ccccc2Sc2ccccc21)c1ccc[n+]([O-])c1,active: 23.8 µM,–
O=C1Nc2ccc([N+](=O)[O-])cc2OC1CCN1CCN(c2ccccc2)CC1 (stereo unspecified),"inconclusive [inhibitor, single point]",–
COc1ccc(F)cc1CN1CCN(c2cc(C)nc3c4c(C)cc(C)nc4nn23)CC1,"inconclusive [inhibitor, partial curve]",–
CCN1CCN(C(C(=O)NC2CCCC2)c2cc3c(cc2[N+](=O)[O-])OCO3)CC1 (stereo unspecified),"inconclusive [inhibitor, single point]",–
O=C(Nc1ccnc(-c2cccnc2)n1)c1ccccc1Cl,"inconclusive [inhibitor, partial curve]",–
CCN(CC)C(=O)c1cc(-c2ccc(Br)cc2)on1,"inconclusive [inhibitor, single point]",–
COc1ccc(-n2c(=O)c(C)nc3cncnc32)cc1,active: 25.1 µM,–
COc1ccc(-c2nnn(CC(=O)N(CCN3CCOCC3)C(C(=O)NC3CCCCC3)c3ccco3)n2)cc1 (stereo unspecified),"inconclusive [inhibitor, full curve]",–
Cc1ccc(NC(=O)CCS(=O)(=O)c2cccc3nonc23)cc1,"inconclusive [inhibitor, single point]",–
Cc1ccc(-n2nc(C)c3c(C)c(CCC(=O)NC(C)c4ccccc4)c(C)nc32)cc1 (stereo unspecified),"inconclusive [inhibitor, single point]",–
Cc1cc(C)c(COc2ccc(/C=N/n3c(C)n[nH]c3=S)cc2)c(C)c1,"inconclusive [inhibitor, single point]",–
COc1cccc(C(=O)/C=C/Nc2ccc(S(=O)(=O)Nc3nc(C)cc(C)n3)cc2)c1,"inconclusive [inhibitor, single point]",–
Cc1ccc(SCc2cn3cccnc3n2)cc1,"inconclusive [inhibitor, single point]",–
CCOC(=O)C1(CC2CCCCO2)CCN(S(=O)(=O)c2cc(C)cs2)CC1 (stereo unspecified),active: 10 µM,–
O=C(COc1ccc(S(=O)(=O)N2CCc3ccccc32)cc1Cl)NCc1ccccn1,active: 14.1 µM,–
COC(=O)c1ccc(C(=O)OC)c(NC(=S)N2CC(C)CC(C)C2)c1 (stereo unspecified),"inconclusive [inhibitor, partial curve]",–
NC1=NC(=O)C2(COC(c3cccc([N+](=O)[O-])c3)OC2)S1 (stereo unspecified),"inconclusive [inhibitor, single point]",–
O=C(CCN1CCCCC1)Nc1cccc(Cl)c1,inactive,–
O=C(c1ccccc1Sc1c(Cl)cccc1[N+](=O)[O-])N1CCOCC1,inactive,–
Cc1ccc(C(=O)Cn2c(-c3ccccc3)noc2=O)cc1,inactive,–
COc1ccc(C(=O)NC(=S)Nc2cc3oc4ccccc4c3cc2OC)cc1,"inconclusive [inhibitor, single point]",–
O=C1CSC(c2ccccn2)N1c1ccc(Cl)c(Cl)c1 (stereo unspecified),"inconclusive [inhibitor, partial curve]",–

Structure (SMILES),Potency,"activity, negative = inhibition"
COc1ccc(CCNC(=O)C(=O)NCc2cccs2)cc1OC,"inconclusive [inhibitor, partial curve]",–
CCOc1ccc(NC(=O)C2CC(=O)N3CCCN=C3S2)cc1 (stereo unspecified),active: 14.1 µM,–
O=C1/C(=C\c2ccccn2)SC(=S)N1Nc1ncc(C(F)(F)F)cc1Cl,"inconclusive [inhibitor, single point]",–
Cc1ccc(NC(=O)NC(=S)NC(=O)c2ccccc2)cc1,"inconclusive [inhibitor, full curve]",–
Cn1c(N)c(C(=O)COC(=O)c2ccccc2NCc2ccco2)c(=O)n(C)c1=O,"inconclusive [inhibitor, single point]",–
CC1=NN(c2ccc([N+](=O)[O-])cc2)C(=O)/C1=C\N(C)C,"inconclusive [inhibitor, single point]",–
C#CCOC(=O)CCCNc1ccc([N+](=O)[O-])cc1[N+](=O)[O-],inactive,–
CCCNc1c(F)c(F)c2c(C)c3ccccc3nc2c1F,"inconclusive [inhibitor, single point]",–
CC1CN(C(=O)C(C)Sc2nc3ccccc3s2)CC(C)O1 (stereo unspecified),"inconclusive [inhibitor, full curve, poor fit]",–
COc1ccc([N+](=O)[O-])cc1NC(=O)CSc1ccccc1,"inconclusive [inhibitor, single point]",–
O=C(CSc1ccccc1C(=O)NCCCN1CCCC1=O)NCc1ccco1,"inconclusive [inhibitor, single point]",–
O=c1cc(-c2ccc(C3CCCCC3)cc2)[nH][nH]1,inactive,–
CC(=O)Nc1ccc(OCC(O)CN2CCN(Cc3ccccc3)CC2)cc1 (stereo unspecified),inactive,–
CN(C)S(=O)(=O)c1ccc2nnn(O)c2c1,inactive,–
Cc1ccc(C)c(NC(=S)NNC(=O)c2csc3c2CCCC3)c1,active: 8.91 µM,–
CC(C)c1ccc(NC(=O)CSc2n[nH]c(=O)n2-c2ccc3c(c2)OCCO3)cc1,active: 11.2 µM,–
CSc1nc2nccc(-c3ccc(-c4ccccc4)cc3)n2n1,"inconclusive [inhibitor, single point]",–
COc1cc(N=Nc2c(O)c3ccccc3[nH]c2=O)c(OC)cc1N=Nc1ccccc1,active: 15.8 µM,–
O=C(COc1ccc(S(=O)(=O)N2CCCC2)cc1Cl)NCc1ccc2c(c1)OCO2,active: 5.01 µM,–
Cc1ccc(C2=NNC(C(O)C(O)C(O)C(C)O)S2)cc1 (stereo unspecified),"inconclusive [inhibitor, partial curve]",–
O=C(O)/C=C\C(=O)Nc1ccc(N2CCN(c3cccc(Cl)c3)CC2)cc1,active: 28.2 µM,–
O=C1c2oc3ccccc3c(=O)c2C(c2cccnc2)N1Cc1ccco1 (stereo unspecified),active: 14.1 µM,–
COc1ccccc1-n1cnnc1SCC(=O)N1CCN(C(=O)c2ccco2)CC1,"inconclusive [inhibitor, partial curve]",–
